The list shows a part of the results. Sequences were assembled here from the parent chain. Values near 0.05 are background.
B1: TEV protease; numbered along this chain (parent)
chain: MGESLFKGPRDYNPISSSICHLTNESDGHTTSLYGIGFGPFIITNKHLFRRNNGTLVVQSLHGVFKVKDTTTLQQHLVDGRDMIIIRMPKDFPPFPQKLKFREPQREERICLVTTNFQTKSMSSMVSDTSCTFPSGDGIFWKHWIQTKDGQCGSPLVSTRDGFIVGIHSASNFTNTNNYFTSVPKNFMELLTNQEAQQWVSGWRLNADSVLWGGHKVFMVKPEEPFQPVKEATQL

Variants of: B1
Experiment: raw area under fraction-flipped curve 0-4 h after induction (AUC4h, not background-subtracted), DNA-recorder readout of cleavage of the substrate (dimensionless); higher = more cleavage of the substrate by the protease variant
Conditions: temperature: 34 °C; time window: 0-4 h after rhamnose induction
Procedure: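 In vivo DNA recorder in E. coli TOP10(DE3) ΔrhaA at 34 °C. Each TEVp single-site mutant (parent TEVp 0) is paired with a single-site variant of the 7-mer TEVs (canonical ENLYFQ|S). The substrate sits between flexible linkers in a Bxb1-sfGFP-TEVs-SsrA fusion, so cleavage stabilises Bxb1 and speeds flipping of a recombination array, read by NGS. The value is the raw area under the fraction-flipped curve over 0-4 h after rhamnose induction (AUC4h), with ≥20 reads per time point. It is not background-subtracted; inactive controls average about 0.047.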
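Also: Bxb1 expression induced with 0.2% (w/v) L-rhamnose at OD600 near 0.5, cultures sampled hourly, flipped fraction per protease–substrate barcode pair counted by paired-end Illumina sequencing.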

Row | Variant | area with substrate ENLAFQS | area with substrate ENLCFQS | area with substrate ENLDFQS | area with substrate ENLFFQS | area with substrate ENLIFQS | area with substrate ENLKFQS | area with substrate ENLLFQS | area with substrate ENLNFQS | area with substrate ENLPFQS | area with substrate ENLRFQS | area with substrate ENLSFQS | area with substrate ENLEFQS | area with substrate ENLHFQS | area with substrate ENLQFQS | area with substrate ENLWFQS | area with substrate ENLVFQS | area with substrate ENLMFQS | area with substrate ENLTFQS | area with substrate ENLGFQS
1 | MGESLFKGPADYNPISSSICHLTNESDGHTTSLYGIGFGPFIITNKHLFRRNNGTLVVQSLHGVFKVKDTTTLQQHLVDGRDMIIIRMPKDFPPFPQKLKFREPQREERICLVTTNFQTKSMSSMVSDTSCTFPSGDGIFWKHWIQTKDGQCGSPLVSTRDGFIVGIHSASNFTNTNNYFTSVPKNFMELLTNQEAQQWVSGWRLNADSVLWGGHKVFMVKPEEPFQPVKEATQL [R10A] | 0.0693 | 0.0771 | 0.0851 | 0.091 | 0.0918 | 0.0645 | 0.0734 | 0.0475 | 0.0434 | 0.057 | 0.0548 |  |  |  |  |  |  |  | 
2 | MGESLFKGPRDYNPISSSICHLTIESDGHTTSLYGIGFGPFIITNKHLFRRNNGTLVVQSLHGVFKVKDTTTLQQHLVDGRDMIIIRMPKDFPPFPQKLKFREPQREERICLVTTNFQTKSMSSMVSDTSCTFPSGDGIFWKHWIQTKDGQCGSPLVSTRDGFIVGIHSASNFTNTNNYFTSVPKNFMELLTNQEAQQWVSGWRLNADSVLWGGHKVFMVKPEEPFQPVKEATQL [N24I] | 0.06 | 0.07 | 0.0622 | 0.0678 | 0.072 | 0.0654 | 0.0602 | 0.0678 | 0.0609 | 0.0683 | 0.0887 | 0.0825 | 0.064 | 0.0586 | 0.0462 |  |  |  | 
3 | MGESLFKGPRDYNPISSSICHLTNEIDGHTTSLYGIGFGPFIITNKHLFRRNNGTLVVQSLHGVFKVKDTTTLQQHLVDGRDMIIIRMPKDFPPFPQKLKFREPQREERICLVTTNFQTKSMSSMVSDTSCTFPSGDGIFWKHWIQTKDGQCGSPLVSTRDGFIVGIHSASNFTNTNNYFTSVPKNFMELLTNQEAQQWVSGWRLNADSVLWGGHKVFMVKPEEPFQPVKEATQL [S26I] | 0.0536 | 0.0534 | 0.065 | 0.0735 | 0.0529 | 0.071 |  | 0.0684 | 0.0592 |  |  | 0.0459 |  | 0.0627 | 0.0529 | 0.0569 |  |  | 
4 | MPESLFKGPRDYNPISSSICHLTNESDGHTTSLYGIGFGPFIITNKHLFRRNNGTLVVQSLHGVFKVKDTTTLQQHLVDGRDMIIIRMPKDFPPFPQKLKFREPQREERICLVTTNFQTKSMSSMVSDTSCTFPSGDGIFWKHWIQTKDGQCGSPLVSTRDGFIVGIHSASNFTNTNNYFTSVPKNFMELLTNQEAQQWVSGWRLNADSVLWGGHKVFMVKPEEPFQPVKEATQL [G2P] | 0.0771 | 0.0769 |  | 0.0997 | 0.093 | 0.0933 |  | 0.0549 | 0.068 |  | 0.0647 | 0.0604 | 0.0744 | 0.0854 |  | 0.0962 | 0.0678 | 0.0927 | 
5 | MGESSFKGPRDYNPISSSICHLTNESDGHTTSLYGIGFGPFIITNKHLFRRNNGTLVVQSLHGVFKVKDTTTLQQHLVDGRDMIIIRMPKDFPPFPQKLKFREPQREERICLVTTNFQTKSMSSMVSDTSCTFPSGDGIFWKHWIQTKDGQCGSPLVSTRDGFIVGIHSASNFTNTNNYFTSVPKNFMELLTNQEAQQWVSGWRLNADSVLWGGHKVFMVKPEEPFQPVKEATQL [L5S] | 0.0658 | 0.0657 | 0.0601 | 0.114 |  |  | 0.0657 | 0.0361 | 0.0575 |  |  |  | 0.0406 | 0.0759 |  |  |  |  | 
6 | MGESGFKGPRDYNPISSSICHLTNESDGHTTSLYGIGFGPFIITNKHLFRRNNGTLVVQSLHGVFKVKDTTTLQQHLVDGRDMIIIRMPKDFPPFPQKLKFREPQREERICLVTTNFQTKSMSSMVSDTSCTFPSGDGIFWKHWIQTKDGQCGSPLVSTRDGFIVGIHSASNFTNTNNYFTSVPKNFMELLTNQEAQQWVSGWRLNADSVLWGGHKVFMVKPEEPFQPVKEATQL [L5G] | 0.0622 | 0.092 | 0.0704 | 0.0825 | 0.0682 | 0.0755 | 0.0741 | 0.0411 |  | 0.072 | 0.071 | 0.0709 | 0.0673 | 0.0583 | 0.0416 | 0.0688 | 0.0723 |  | 0.081
7 | MGESLFKGPRDYNPISSSIIHLTNESDGHTTSLYGIGFGPFIITNKHLFRRNNGTLVVQSLHGVFKVKDTTTLQQHLVDGRDMIIIRMPKDFPPFPQKLKFREPQREERICLVTTNFQTKSMSSMVSDTSCTFPSGDGIFWKHWIQTKDGQCGSPLVSTRDGFIVGIHSASNFTNTNNYFTSVPKNFMELLTNQEAQQWVSGWRLNADSVLWGGHKVFMVKPEEPFQPVKEATQL [C20I] | 0.0591 |  | 0.0578 | 0.0723 |  | 0.0776 | 0.0762 | 0.066 | 0.07 | 0.072 | 0.0553 | 0.0279 | 0.0823 | 0.0723 |  | 0.0839 |  |  | 0.067
8 | MGESLFKGPRDYNPISSDICHLTNESDGHTTSLYGIGFGPFIITNKHLFRRNNGTLVVQSLHGVFKVKDTTTLQQHLVDGRDMIIIRMPKDFPPFPQKLKFREPQREERICLVTTNFQTKSMSSMVSDTSCTFPSGDGIFWKHWIQTKDGQCGSPLVSTRDGFIVGIHSASNFTNTNNYFTSVPKNFMELLTNQEAQQWVSGWRLNADSVLWGGHKVFMVKPEEPFQPVKEATQL [S18D] | 0.0603 |  | 0.048 |  |  | 0.071 | 0.0556 | 0.0608 |  |  | 0.0495 |  | 0.0547 | 0.0575 | 0.0644 | 0.0907 |  |  | 

Reference: the supplement of paper PMC12217912
